Experimental data reported in the supplement of paper PMC10338343.
± gives the standard deviation. The list shows a part of the results, in another mix than the full data.

System: MIWI (PIWIL1) piRISC loaded with L1MC piRNA (30 nt)
Experiment: pre-steady-state target cleavage rate (min^-1); MIWI and MILI are mouse PIWI proteins and EfPiwi is from a freshwater sponge; tags in brackets are library labels; higher = faster piRNA-guided slicing of the target
Conditions: guide: L1MC piRNA 5'p-UAACUAAAUACUAUGCAAGCUGUAGGUCCU; auxiliary factor: 500 nM mouse GTSF1
Protocol: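 Cleave-'n-Seq: a library of target RNAs (target site embedded in constant flanks, ACAGCATTCCGCGTTAGTGATATCCG... 5' flank; DNA-blocked outside the site) at 0.1 nM was incubated with 1 nM active mouse MILI or MIWI piRISC (synthetic 5'-monophosphorylated piRNA guide) with or without 500 nM mouse GTSF1 at 33 °C for 1 min to 16 h. Uncleaved targets were sequenced and normalised to non-target controls, and the pooled three trials were fitted to a burst-and-steady-state model to give the pre-steady-state cleavage rate (min^-1; k3 is constrained to at most 1e-4). Sequence is the target site only; target names encode pairing extent (gX:gY) and contiguous / 1-mismatch / 2-mismatch / bulge geometry. Fits with R² ≤ 0 are excluded.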

Sequence | pre-steady-state target cleavage rate
UGGACCUACAGCUUGCAAAGUAUUUUGUUA | 0.783 ± 0.042
UCCUCCUACAGCUUGGAUAGUUUUUAGUUA | 0.358 ± 0.024
UCCUGGAUGUCGAACGUAUGUAUUUAGAUA | < 0.0001
AGGACCUUCAGCAUGCAUAGUAUUUAGUUA | 1.21 ± 0.043
UCCUGGAUGUGCUUGCUUAGUAUUUACUUA | 0.0606 ± 0.011
UCCUGGAUGUGCUUGCAUAGUAUUAUGUUA | 0.0361 ± 0.0097
UCCACCUACAGCAUGCAUAGUAUUUUGUUA | 0.562 ± 0.056
AGGACCUACAGCUAGCAUAGUAUUUUGUUA | 0.893 ± 0.073
UCCUGGAUCAGCAUGCAUAGUAUUUACUUA | 0.313 ± 0.021
UCCACCUACAGCUUGCAAAGUAUUUAGAAA | 0.274 ± 0.043
UCCUGGUACAGCUUCGAUAGUAUUUAGUUA | 0.302 ± 0.029
AGGACCUACAGCUUGCAAAGUAUUUAGUAA | 0.747 ± 0.049
UCCUCCUACAGCUUUCAUAGUAUUUAGUUA | 0.536 ± 0.026
AGGACCUACAGCUUCAUAGUAUUUAGUUA | 1.11 ± 0.053
UCCUGCUACUGCUUGCUUAGUAUUUAGUUA | 0.49 ± 0.039
UCCUGGAACAGCUUGCAUACUUUUUAGUUA | 0.0169 ± 0.0068
AGGACCUACAGCUUGCAUUGUAUUUAGAAA | 0.277 ± 0.045
UCGACCUAGAGCUUGCAUAGUAUAUAGUUA | 0.697 ± 0.061
UCCUCCUAGAGCUUGCAUAGUAUUUACUUA | 0.379 ± 0.056
UCCUGGAUCUCGUUGCAUAGUAUUUACAAA | 0.00651 ± 0.0036
UCCUGGUACUAGCUUGCAUAGUAUUUAGUUA | 0.15 ± 0.031

Same assay, conditions: guide: L1MC piRNA 5'p-UAACUAAAUACUAUGCAAGCUGUAGGUCCU; auxiliary factor: none (no GTSF1)

Sequence | pre-steady-state target cleavage rate
UGGACCUACAGCUUGCAAAGUAUUUUGUUA | 0.0169 ± 0.0033
UCCUCCUACAGCUUGGAUAGUUUUUAGUUA | 0.0209 ± 0.0042
AGGACCUUCAGCAUGCAUAGUAUUUAGUUA | 0.0478 ± 0.011
UCCUGGAUGUGCUUGCUUAGUAUUUACUUA | 0.0187 ± 0.0051
UCCUGGAUGUGCUUGCAUAGUAUUAUGUUA | 0.00737 ± 0.0028
UCCACCUACAGCAUGCAUAGUAUUUUGUUA | 0.0113 ± 0.0018
AGGACCUACAGCUAGCAUAGUAUUUUGUUA | 0.0171 ± 0.0034
UCCUGGAUCAGCAUGCAUAGUAUUUACUUA | 0.0104 ± 0.0021
UCCACCUACAGCUUGCAAAGUAUUUAGAAA | 0.00359 ± 0.0024
UCCUGGUACAGCUUCGAUAGUAUUUAGUUA | 0.00319 ± 0.0029
AGGACCUACAGCUUGCAAAGUAUUUAGUAA | 0.0251 ± 0.0052
UCCUCCUACAGCUUUCAUAGUAUUUAGUUA | 0.0159 ± 0.0028
AGGACCUACAGCUUCAUAGUAUUUAGUUA | 0.0309 ± 0.0073
UCCUGCUACUGCUUGCUUAGUAUUUAGUUA | 0.0208 ± 0.003
UCCUGGAACAGCUUGCAUACUUUUUAGUUA | 0.00432 ± 0.0025
AGGACCUACAGCUUGCAUUGUAUUUAGAAA | 0.00518 ± 0.0027
UCGACCUAGAGCUUGCAUAGUAUAUAGUUA | 0.021 ± 0.004
UCCUCCUAGAGCUUGCAUAGUAUUUACUUA | 0.0255 ± 0.0052
UCCUGGAUCUCGUUGCAUAGUAUUUACAAA | 0.00312 ± 0.0027
UCCUGGUACUAGCUUGCAUAGUAUUUAGUUA | 0.0352 ± 0.008
